Changes are numbered by the printed parent chain; changes in the protein carry UniProt numbers. The list shows a part of the results.

Sequences and labels used below:
B1: AUCGUGU (DNA:RNA)
RNA: GGGAGACCGGAAUUCAGAUUGUCCAUCGUGUUUAAAUCCCGUCGUAGCCACCA
DNA 1: CAATCTGAATTCCGGTCTCCC
DNA 2: TGGTGGCTACGACGGGATT
B2: CCAACUA (DNA:RNA)
RNA: GGGAGACCGGAAUUCAGAUUGUCCCCAACUAUUAAAUCCCGUCGUAGCCACCA
DNA 1: CAATCTGAATTCCGGTCTCCC
DNA 2: TGGTGGCTACGACGGGATT
B3: GUGAGUU (DNA:RNA)
RNA: B1 RNA with A25G, C27G, G28A, U29G, G30U
DNA 1: CAATCTGAATTCCGGTCTCCC
DNA 2: TGGTGGCTACGACGGGATT
B4: AGUACUU (DNA:RNA)
RNA: B2 RNA with C25A, C26G, A27U, A31U
DNA 1: CAATCTGAATTCCGGTCTCCC
DNA 2: TGGTGGCTACGACGGGATT
B5: AUAUGAU (DNA:RNA)
RNA: B1 RNA with C27A, G28U, U29G, G30A
DNA 1: CAATCTGAATTCCGGTCTCCC
DNA 2: TGGTGGCTACGACGGGATT
B6: GCUGCGA (DNA:RNA)
RNA: B2 RNA with C25G, A27U, A28G, U30G
DNA 1: CAATCTGAATTCCGGTCTCCC
DNA 2: TGGTGGCTACGACGGGATT
B7: UGUCAUU (DNA:RNA)
RNA: B1 RNA with A25U, U26G, C27U, G28C, U29A, G30U
DNA 1: CAATCTGAATTCCGGTCTCCC
DNA 2: TGGTGGCTACGACGGGATT
B8: CCUGAAG (DNA:RNA)
RNA: B2 RNA with A27U, A28G, C29A, U30A, A31G
DNA 1: CAATCTGAATTCCGGTCTCCC
DNA 2: TGGTGGCTACGACGGGATT
B9: AAGGCCC (DNA:RNA)
RNA: B1 RNA with U26A, C27G, U29C, G30C, U31C
DNA 1: CAATCTGAATTCCGGTCTCCC
DNA 2: TGGTGGCTACGACGGGATT
B10: ACCCUGC (DNA:RNA)
RNA: B1 RNA with U26C, G28C, U31C
DNA 1: CAATCTGAATTCCGGTCTCCC
DNA 2: TGGTGGCTACGACGGGATT
B11: UCAGGAA (DNA:RNA)
RNA: B2 RNA with C25U, A28G, C29G, U30A
DNA 1: CAATCTGAATTCCGGTCTCCC
DNA 2: TGGTGGCTACGACGGGATT
B12: GGCAGCC (DNA:RNA)
RNA: B1 RNA with A25G, U26G, G28A, U29G, G30C, U31C
DNA 1: CAATCTGAATTCCGGTCTCCC
DNA 2: TGGTGGCTACGACGGGATT
B13: GCUAGGC (DNA:RNA)
RNA: B2 RNA with C25G, A27U, C29G, U30G, A31C
DNA 1: CAATCTGAATTCCGGTCTCCC
DNA 2: TGGTGGCTACGACGGGATT
B14: UGUAUCG (DNA:RNA)
RNA: B1 RNA with A25U, U26G, C27U, G28A, G30C, U31G
DNA 1: CAATCTGAATTCCGGTCTCCC
DNA 2: TGGTGGCTACGACGGGATT
B15: UGAAGGC (DNA:RNA)
RNA: B2 RNA with C25U, C26G, C29G, U30G, A31C
DNA 1: CAATCTGAATTCCGGTCTCCC
DNA 2: TGGTGGCTACGACGGGATT
B16: UCGUAUU (DNA:RNA)
RNA: B2 RNA with C25U, A27G, A28U, C29A, A31U
DNA 1: CAATCTGAATTCCGGTCTCCC
DNA 2: TGGTGGCTACGACGGGATT
B17: ACAUUUU (DNA:RNA)
RNA: B1 RNA with U26C, C27A, G28U, G30U
DNA 1: CAATCTGAATTCCGGTCTCCC
DNA 2: TGGTGGCTACGACGGGATT
B18: CGAGCUA (DNA:RNA)
RNA: B2 RNA with C26G, A28G
DNA 1: CAATCTGAATTCCGGTCTCCC
DNA 2: TGGTGGCTACGACGGGATT
B19: UCGCUGA (DNA:RNA)
RNA: B1 RNA with A25U, U26C, C27G, G28C, U31A
DNA 1: CAATCTGAATTCCGGTCTCCC
DNA 2: TGGTGGCTACGACGGGATT
B20: AGUACCU (DNA:RNA)
RNA: B1 RNA with U26G, C27U, G28A, U29C, G30C
DNA 1: CAATCTGAATTCCGGTCTCCC
DNA 2: TGGTGGCTACGACGGGATT

This test addresses T1, RBFOX1 RRM (Homo sapiens, UniProt Q9NWB1 109-208).
T1 sequence: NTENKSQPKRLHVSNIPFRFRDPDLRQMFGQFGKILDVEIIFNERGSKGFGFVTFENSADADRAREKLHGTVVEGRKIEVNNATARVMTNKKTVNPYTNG
The experiment in a line: EMSA; HiTS-Eq, 1 nM pool, 10 min; buffer printed only for the single-RNA assays: 10 mM Tris pH 7.5, 150 mM NaCl, 3.4 mM EDTA, 0.001% NP-40, 30 C. The settings on record: tags: His6 N-terminal (pET28a); label: 5' 32P. The gist of the method:
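Purified RbFox RRM, wild type or mutant, was incubated for 10 min in 50 µL with 1 nM of a 5′-radiolabelled RNA pool carrying 7 randomized nucleotides, whose flanks were annealed to DNA oligonucleotides, over a series of increasing protein concentrations. Unbound RNA was resolved on 8% native PAGE, cut out, reverse-transcribed, barcoded by PCR and sequenced on an Illumina HiSeq 2500. Relative association constants were derived from changes in read counts for each RNA species versus the control reaction and normalised to the cognate motif.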
On the technique in general: In EMSA bound probe runs differently from free probe, usually more slowly.
As to B1, the binding signal was 0.0122 KA relative to UGCAUGU.
To B2 belongs 0.00394 KA relative to UGCAUGU; to B3, 0.0159 KA relative to UGCAUGU.
Next, B4: 0.00806 KA relative to UGCAUGU; B5: 0.00946 KA relative to UGCAUGU.
As to B6, the binding signal was 0.0191 KA relative to UGCAUGU.
Next, B7: 0.0124 KA relative to UGCAUGU; B8: 0.0147 KA relative to UGCAUGU; B9: 0.00819 KA relative to UGCAUGU.
To B10 belongs 0.00869 KA relative to UGCAUGU; to B11, 0.00853 KA relative to UGCAUGU; to B12, 0.00719 KA relative to UGCAUGU.
For the molecule B13, the binding signal was 0.0131 KA relative to UGCAUGU.
To B14 belongs 0.0133 KA relative to UGCAUGU; to B15, 0.0192 KA relative to UGCAUGU; to B16, 0.00649 KA relative to UGCAUGU.
To B17 belongs 0.00232 KA relative to UGCAUGU; to B18, 0.00585 KA relative to UGCAUGU; to B19, 0.0148 KA relative to UGCAUGU.
In the case of B20, the binding signal was 0.00268 KA relative to UGCAUGU.
